# Measurements from the supplement of paper PMC8728848.
# This is one part of the list.
# Experiments:
# Assay in all cases: glycan array binding signal (z-score within array); higher = stronger binding
# Details in all cases: glycan notation: IUPAC condensed, linker removed
# [1] = target: Neu5Ac(a2-3)Gal(b1-4)GlcNAc(b1-3)[Neu5Ac(a2-3)Gal(b1-4)GlcNAc(b1-6)]GalNAc
# Outline: (§1)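 The binding signal is a Z-score computed within each array. Data were drawn from 3228 arrays in the Consortium for Functional Glycomics database, restricted to those with a known protein sequence. Scores were averaged over arrays of the same protein sequence at different concentrations or buffers, and over linkers, and negative values can be taken as non-binding.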
# [2] = target: Neu5Ac(a2-3)Gal(b1-4)GlcNAc(b1-6)GalNAc
# Outline: as §1
# [3] = target: Neu5Ac(a2-3)Gal(b1-4)GlcNAc(b1-6)[Gal(b1-3)]GalNAc
# Outline: as §1
# [4] = target: Neu5Ac(a2-3)Gal(b1-4)GlcNAc(b1-6)[Neu5Ac(a2-3)Gal(b1-3)]GalNAc
# Outline: as §1
# [5] = target: Neu5Ac(a2-3)Gal(b1-4)GlcNAc6S
# Outline: as §1
# [6] = target: Neu5Ac(a2-3)Gal(b1-4)[Fuc(a1-3)]GlcNAc
# Outline: as §1
# [7] = target: Neu5Ac(a2-3)Gal(b1-4)[Fuc(a1-3)]GlcNAc(b1-2)Man
# Outline: as §1
# [8] = target: Neu5Ac(a2-3)Gal(b1-4)[Fuc(a1-3)]GlcNAc(b1-3)Gal
# Outline: as §1
# [9] = target: Neu5Ac(a2-3)Gal(b1-4)[Fuc(a1-3)]GlcNAc(b1-3)Gal(b1-4)GlcNAc
# Outline: as §1
# [10] = target: Neu5Ac(a2-3)Gal(b1-4)[Fuc(a1-3)]GlcNAc(b1-3)Gal(b1-4)[Fuc(a1-3)]GlcNAc(b1-3)Gal(b1-4)[Fuc(a1-3)]GlcNAc
# Outline: as §1
# [11] = target: Neu5Ac(a2-3)Gal(b1-4)[Fuc(a1-3)]GlcNAc(b1-3)GalNAc
# Outline: as §1
# [12] = target: Neu5Ac(a2-3)Gal(b1-4)[Fuc(a1-3)]GlcNAc(b1-6)[Gal(b1-3)]GalNAc
# Outline: as §1
# [13] = target: Neu5Ac(a2-3)Gal(b1-4)[Fuc(a1-3)]GlcNAc(b1-6)[Neu5Ac(a2-3)Gal(b1-3)]GalNAc
# Outline: as §1
# [14] = target: Neu5Ac(a2-3)Gal(b1-4)[Fuc(a1-3)]GlcNAc6S
# Outline: as §1
# [15] = target: Neu5Ac(a2-3)Gal6S(b1-4)GlcNAc
# Outline: as §1
# [16] = target: Neu5Ac(a2-3)Gal6S(b1-4)[Fuc(a1-3)]GlcNAc
# Outline: as §1
# [17] = target: Neu5Ac(a2-3)GalNAc
# Outline: as §1
# [18] = target: Neu5Ac(a2-3)GalNAc(b1-4)GlcNAc
# Outline: as §1
# [19] = target: Neu5Ac(a2-3)[GalNAc(b1-4)]Gal(b1-4)Glc
# Outline: as §1
# [20] = target: Neu5Ac(a2-3)[GalNAc(b1-4)]Gal(b1-4)GlcNAc
# Outline: as §1
# [21] = target: Neu5Ac(a2-3)[GalNAc(b1-4)]Gal(b1-4)GlcNAc(b1-3)GalNAc
# Outline: as §1
# [22] = target: Neu5Ac(a2-3)[Neu5Ac(a2-6)]GalNAc
# Outline: as §1
# [23] = target: Neu5Ac(a2-6)Gal
# Outline: as §1
# [24] = target: Neu5Ac(a2-6)Gal(b1-3)GlcNAc(b1-3)[Gal(b1-4)GlcNAc(b1-6)]Gal(b1-4)Glc
# Outline: as §1
# [25] = target: Neu5Ac(a2-6)Gal(b1-4)Glc
# Outline: as §1
# [26] = target: Neu5Ac(a2-6)Gal(b1-4)GlcNAc
# Outline: as §1
# [27] = target: Neu5Ac(a2-6)Gal(b1-4)GlcNAc(b1-2)Man
# Outline: as §1
# [28] = target: Neu5Ac(a2-6)Gal(b1-4)GlcNAc(b1-2)Man(a1-3)Man(b1-4)GlcNAc(b1-4)GlcNAc
# Outline: as §1
# [29] = target: Neu5Ac(a2-6)Gal(b1-4)GlcNAc(b1-2)Man(a1-3)[Gal(b1-4)GlcNAc(b1-2)Man(a1-6)]Man(b1-4)GlcNAc(b1-4)GlcNAc
# Outline: as §1
# [30] = target: Neu5Ac(a2-6)Gal(b1-4)GlcNAc(b1-2)Man(a1-3)[GlcNAc(b1-2)Man(a1-6)]Man(b1-4)GlcNAc(b1-4)GlcNAc
# Outline: as §1
# [31] = target: Neu5Ac(a2-6)Gal(b1-4)GlcNAc(b1-2)Man(a1-3)[GlcNAc(b1-4)][Neu5Ac(a2-6)Gal(b1-4)GlcNAc(b1-2)Man(a1-6)]Man(b1-4)GlcNAc(b1-4)GlcNAc
# Outline: as §1
# [32] = target: Neu5Ac(a2-6)Gal(b1-4)GlcNAc(b1-2)Man(a1-3)[Man(a1-6)]Man(b1-4)GlcNAc(b1-4)GlcNAc
# Outline: as §1
# [33] = target: Neu5Ac(a2-6)Gal(b1-4)GlcNAc(b1-2)Man(a1-3)[Neu5Ac(a2-3)Gal(b1-4)GlcNAc(b1-2)Man(a1-6)]Man(b1-4)GlcNAc(b1-4)GlcNAc
# Outline: as §1
# [34] = target: Neu5Ac(a2-6)Gal(b1-4)GlcNAc(b1-2)Man(a1-3)[Neu5Ac(a2-6)Gal(b1-4)GlcNAc(b1-2)Man(a1-6)]Man(b1-4)GlcNAc(b1-4)GlcNAc
# Outline: as §1
# [35] = target: Neu5Ac(a2-6)Gal(b1-4)GlcNAc(b1-2)Man(a1-3)[Neu5Ac(a2-6)Gal(b1-4)GlcNAc(b1-2)Man(a1-6)]Man(b1-4)GlcNAc(b1-4)[Fuc(a1-6)]GlcNAc
# Outline: as §1
# [36] = target: Neu5Ac(a2-6)Gal(b1-4)GlcNAc(b1-2)Man(a1-6)Man(b1-4)GlcNAc(b1-4)GlcNAc
# Outline: as §1
# [37] = target: Neu5Ac(a2-6)Gal(b1-4)GlcNAc(b1-2)Man(a1-6)[Gal(b1-4)GlcNAc(b1-2)Man(a1-3)]Man(b1-4)GlcNAc(b1-4)GlcNAc
# Outline: as §1
# [38] = target: Neu5Ac(a2-6)Gal(b1-4)GlcNAc(b1-2)Man(a1-6)[GlcNAc(b1-2)Man(a1-3)]Man(b1-4)GlcNAc(b1-4)GlcNAc
# Outline: as §1
# [39] = target: Neu5Ac(a2-6)Gal(b1-4)GlcNAc(b1-2)Man(a1-6)[Man(a1-3)]Man(b1-4)GlcNAc(b1-4)GlcNAc
# Outline: as §1
# [40] = target: Neu5Ac(a2-6)Gal(b1-4)GlcNAc(b1-2)[Neu5Ac(a2-6)Gal(b1-4)GlcNAc(b1-4)]Man(a1-3)[GlcNAc(b1-4)][Neu5Ac(a2-6)Gal(b1-4)GlcNAc(b1-2)[Neu5Ac(a2-6)Gal(b1-4)GlcNAc(b1-6)]Man(a1-6)]Man(b1-4)GlcNAc(b1-4)GlcNAc
# Outline: as §1
# [41] = target: Neu5Ac(a2-6)Gal(b1-4)GlcNAc(b1-2)[Neu5Ac(a2-6)Gal(b1-4)GlcNAc(b1-4)]Man(a1-3)[GlcNAc(b1-4)][Neu5Ac(a2-6)Gal(b1-4)GlcNAc(b1-4)Man(a1-6)]Man(b1-4)GlcNAc(b1-4)GlcNAc
# Outline: as §1
# [42] = target: Neu5Ac(a2-6)Gal(b1-4)GlcNAc(b1-2)[Neu5Ac(a2-6)Gal(b1-4)GlcNAc(b1-6)]Man(a1-6)[Neu5Ac(a2-6)Gal(b1-4)GlcNAc(b1-2)Man(a1-3)][GlcNAc(b1-4)]Man(b1-4)GlcNAc(b1-4)GlcNAc
# Outline: as §1
# [43] = target: Neu5Ac(a2-6)Gal(b1-4)GlcNAc(b1-3)Gal(b1-3)GlcNAc
# Outline: as §1
# [44] = target: Neu5Ac(a2-6)Gal(b1-4)GlcNAc(b1-3)Gal(b1-4)GlcNAc
# Outline: as §1
# [45] = target: Neu5Ac(a2-6)Gal(b1-4)GlcNAc(b1-3)Gal(b1-4)GlcNAc(b1-2)Man(a1-3)[Neu5Ac(a2-6)Gal(b1-4)GlcNAc(b1-3)Gal(b1-4)GlcNAc(b1-2)Man(a1-6)]GalNAc
# Outline: as §1
# [46] = target: Neu5Ac(a2-6)Gal(b1-4)GlcNAc(b1-3)Gal(b1-4)GlcNAc(b1-3)Gal(b1-4)GlcNAc
# Outline: as §1
binder,measurement,setting,value
"CFEM-CGl (Candida glabrata), Q6FRS0 (protein) VLATPPACLLACVAQVSKQSSQCHTLNQVGCFCENENTAIKNCLDSICPNGNSDAAYTAFKNSCGDVGKAVASV",glycan array binding signal (z-score),[1],-0.174
same,glycan array binding signal (z-score),[2],-0.246
same,glycan array binding signal (z-score),[3],0.326
same,glycan array binding signal (z-score),[4],-0.178
same,glycan array binding signal (z-score),[5],-0.111
same,glycan array binding signal (z-score),[6],-0.263
same,glycan array binding signal (z-score),[7],0.312
same,glycan array binding signal (z-score),[8],-0.311
same,glycan array binding signal (z-score),[9],0.563
same,glycan array binding signal (z-score),[10],-0.167
same,glycan array binding signal (z-score),[11],3.44
same,glycan array binding signal (z-score),[12],0.977
same,glycan array binding signal (z-score),[13],0.076
same,glycan array binding signal (z-score),[14],-0.384
same,glycan array binding signal (z-score),[15],-0.211
same,glycan array binding signal (z-score),[16],-0.41
same,glycan array binding signal (z-score),[17],-0.034
same,glycan array binding signal (z-score),[18],-0.449
same,glycan array binding signal (z-score),[19],-0.063
same,glycan array binding signal (z-score),[20],-0.342
same,glycan array binding signal (z-score),[21],-0.187
same,glycan array binding signal (z-score),[22],-0.425
same,glycan array binding signal (z-score),[23],0.051
same,glycan array binding signal (z-score),[24],-0.355
same,glycan array binding signal (z-score),[25],-0.129
same,glycan array binding signal (z-score),[26],-0.293
same,glycan array binding signal (z-score),[27],-0.367
same,glycan array binding signal (z-score),[28],-0.359
same,glycan array binding signal (z-score),[29],-0.369
same,glycan array binding signal (z-score),[30],-0.525
same,glycan array binding signal (z-score),[31],-0.428
same,glycan array binding signal (z-score),[32],-0.29
same,glycan array binding signal (z-score),[33],-0.45
same,glycan array binding signal (z-score),[34],-0.139
same,glycan array binding signal (z-score),[35],-0.178
same,glycan array binding signal (z-score),[36],-0.337
same,glycan array binding signal (z-score),[37],-0.409
same,glycan array binding signal (z-score),[38],-0.451
same,glycan array binding signal (z-score),[39],-0.332
same,glycan array binding signal (z-score),[40],-0.643
same,glycan array binding signal (z-score),[41],-0.393
same,glycan array binding signal (z-score),[42],-0.206
same,glycan array binding signal (z-score),[43],-0.342
same,glycan array binding signal (z-score),[44],-0.575
same,glycan array binding signal (z-score),[45],-0.069
same,glycan array binding signal (z-score),[46],0.051
